In patent publication US12338291B2, “Humanized antibody molecules to CD138 and uses thereof” (VISTERRA, INC., priority 2019, dated 2025):
Several values for one entry are separate records, joined by “and”; a condition that tells them apart may be missing. Identical values can stand only once.

Assays:
[1] = test system: CD138+ LP-1 cells; assay: Antibody binding to LP-1 cells by flow cytometry; design: species or system human; conditions: FIG. 3
Protocol: (§1) In one experiment, the humanized variants of monoclonal antibody 2810 were assessed for their capacity to bind to CD138 on the surface of cells. Briefly, the humanized variants of antibody 2810 were produced in HEK 293 cells following transient transfection. The antibodies were then serially diluted three-fold. Antibody binding to membrane CD138 was evaluated using the CD138+ human lymphoblastic myeloma cell line U266 and quantified by flow cytometry. Antibody cell binding was reported as geometric mean fluorescence intensity (MFI). Binding data were plotted using nonlinear regression analysis and a 4-parameter curve fit.
(§2) First, humanized anti-CD138 antibody variants 3821, 4321, 4320, 4521, 4326, and 3820 were evaluated for binding to three different CD138+ multiple myeloma related cell lines: MM1.S, LP-1, and RPMI 8226. Antibody binding was measured by flow cytometry as described in Example 15.

[2] = Differential scanning fluorescence (DSF) thermal stability; assay type: physicochemical; conditions: PBS pH 7.4, 25-95 °C
From the text: Thermal stability represents an important property of antibodies and is used as a predictive surrogate of pharmaceutical drug stability in humans based on a relative stability profile as characterized by differential thermal melting profiles. Several methods exist for evaluation of product stability based on thermal melting. These include, for example, circular dichroism (CD), differential scanning calorimetry (DSC), and differential scanning fluorescence (DSF), among others. In this example, the thermal stabilities of select humanized anti-CD138 antibodies were evaluated by DSF. DSF was used to monitor the conformational stability of a protein as it was exposed to increasing thermal stress. The dye, SYPRO Orange®, fluoresces in a hydrophobic environment, such as hydrophobic core residues that are exposed during thermally triggered protein unfolding, or denaturation. In brief, SYPRO® Orange Dye (Sigma Chemical) was diluted 1:500 in phosphate buffered saline (PBS), pH 7.4, without addition of any detergents. Antibodies were likewise diluted in PBS to a target concentration of 0.5 mg/mL. […] Thermal scans were carried out using a real-time quantitative PCR (qPCR) thermal cycler with fluorescence detection capabilities. […] TMs were then calculated based on transformation of the data using the first derivative of the fluorescence signal versus time. […]

[3] = test system: MM1.S (Luc) cells
[4] = Antibody production titers in Chinese hamster ovary cells; conditions: CHO transient transfection, after Protein A purification
From the text: The yields represent antibody amounts following purification from cell culture media by Protein A affinity chromatography, carried out under identical transfection conditions and culture scale. Differential pre-purification titers based on quantification using Protein-A biosensors (bio-layer interferometry) of antibody in culture media was also noted likewise indicating differential expression levels (antibody titers).

[5] = target: T1, human CD138 peptide 6A (Homo sapiens, UniProt P18827); assay: Antigen capture ELISA, binding to CD138 peptide 6A; conditions: FIG. 10
T1 construct: Pep6a; 220-245; 17; 26
T1 sequence (P18827 220-245 limits assumed): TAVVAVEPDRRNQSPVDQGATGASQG
Protocol: 1 or select human CD138 derived peptides (Table 3) was evaluated by antigen capture ELISA. In brief, MaxiSorp™ plates were first coated with antibodies 4320 or BB4 at a 0.5 μg/ml concentration overnight (12-15 hours) at 2-8° C. The immobilized monoclonal antibodies were tested for binding to biotinylated recombinant CD138 extracellular domain or peptides 2A, peptide 6A in 5-fold serial antigen dilutions starting at starting at a 50 nM concentration. HRP-conjugated Anti-biotin secondary antibody (1:10000 dilution) was used for detection.

[6] = test system: MM1.S (Luc) cells; assay: In vivo efficacy in MM1.S (Luc) xenograft multiple myeloma model, BLI (Example 4); design: species or system mouse
Protocol: The quantity of emitted light from the tumor after systemic injection of D-luciferin was calibrated to correlate with viable tumor burden. […] For this study, in vivo BLI images were acquired on days 14, 21, 28, 35 and 42.
Anti-CD138 antibodies were dosed intraperitoneally twice weekly (Q3Dx2; 3 off) for five weeks.
Images were analyzed using Living Image 4.3.1 (PerkinElmer, MA) software.
FIGS. 6A-6B summarize the Mean BLI±standard error of the means of disseminated multiple myeloma tumors quantification from IVIS imaging at specific time points and dose levels shown. […] FIG. 6C summarizes percent survival of animals in vehicle group versus animals treated with anti-CD138 antibodies mAb 2810 and 4320. Percent survival was defined as mice surviving to a predetermined euthanasia criterium related to disease-related morbidity, defined as weight loss greater than 20%, severely impaired CNS function, or severely impaired movement or loss of righting reflexes.

[7] = Antibody serum titers (PK) in xenograft mice by human IgG ELISA (Example 7); assay type: in vivo, mouse
Protocol: Non-terminal blood sampling was taken weekly from 4 mice per group starting on day 14 prior to first dose day 15, 24 hour post-first dose day 20, prior to third dose day 27, prior to fifth dose and day 34, prior to seventh dose (if applicable). Animals chosen for weekly sampling alternated between animals 1-4 and 5-8 in each group to conform to a two-week bleeding schedule for each individual animal One hundred microliters of whole blood were collected via retro-orbital puncture and processed into serum for human antibody titer determination by ELISA. Human IgG1 antibody titers were measured in mouse sera using Human IgG Quantitative ELISA Kit, Bethyl Labs, (Catalog #E80-104) based on the manufacturer's recommendation, incorporating modifications as needed. Sera were diluted from 1:50-1:1350, as needed, to conform to preset limits of assay linearity and quantification (LOQ).

[8] = test system: MM cell lines; assay: NK cell-based ADCC assays using human-derived NK cells; conditions: incl. bortezomib- or lenalidomide-resistant lines
[9] = test system: CD138+ RPMI 8226 cells; assay: Antibody binding to RPMI 8226 cells by flow cytometry; design: species or system human; conditions: FIG. 3
Protocol: as §1, §2

B1: mAb 4320: humanized anti-CD138 IgG1 kappa antibody; VH SEQ ID NO: 471, VL SEQ ID NO: 475; HC SEQ ID NO: 527, LC SEQ ID NO: 528 (antibody)
heavy: QVQLVQSGAEVKKPGASVKVSCKASGYSFSSYYMHWVRQAPGQGLEWMGTIHPSDSTTNYNQKFQGRVTMTVDTSTRTAYMELSSLRSEDTAVYYCANFVYWGQGTTVTVSSASTKGPSVFPLAPSSKSTSGGTAALGCLVKDYFPEPVTVSWNSGALTSGVHTFPAVLQSSGLYSLSSVVTVPSSSLGTQTYICNVNHKPSNTKVDKRV[human IgG1 Fc not spelt out]
light: DIVMTQTPLSLSVTPGQPASISCKSSKSLLYKDGKTYLNWFLQKPGQSPQLLIYVVSTRASGVPDRFSGSGSGTDFTLKISRVEAEDVGVYYCQQLVEYPYTFGQGTKLEIKRTVAAPSVFIFPPSDEQLKSGTASVVCLLNNFYPREAKVQWKVDNALQSGNSQESVTEQDSKDSTYSLSSTLTLSKADYEKHKVYACEVTHQGLSSPVTKSFNRGEC
Antibody binding by flow cytometry [1]: dose-dependent binding | TM1 ([2]; first thermal transition): 68.9 °C | TM2 ([2]; second thermal transition): 77.7 °C | Change in body weight ([3]; FIG. 21): upward trend in mean body weight | Mean body weight change ([3]; FIG. 21): less than 5% | Survival (animals remaining on study to end of study) ([3]; day 73, treatment discontinued day 53): > 50% and 56% | Incidence of complete or partial regression ([3]; end of dosing phase): 22% | Tumor growth delay (time to BLI 1.0×10^9 p/s) ([3]; mAb 4320 4 mg/kg, bortezomib 1 mg/kg i.p. twice weekly): 13.9 days | Animal deaths in treatment groups ([3]; mouse, in vivo): No animal deaths | Incidence of complete regression ([3]; mouse, in vivo): 22% | Treatment-related death ([3]; mouse, in vivo): No treatment-related death | Expression [4]: 106.4 mg/L | Binding to peptide 6A [5]: detected at the higher concentration evaluated | Whole body tumor burden (BLI) in comparison to mAb 2810 ([6]; i.p. twice weekly, mAb 4320 4, 8 or 16 mg/kg, mAb 2810 4.0 mg/kg, FIG. 6): discernibly lower tumor burden and higher efficacy | Dose dependency of efficacy ([6]; mAb 4320 at 4, 8, 16 mg/kg): did not demonstrate a dose dependency | Anti-drug antibody response (ADA) ([7]; C.B-17 SCID mice, repeat dosing): No anti-mAb 4320 antibody response | PK profile compared to parental mAb 2810 ([7]; mouse, in vivo): modestly better PK profile | Serum antibody levels vs dose ([7]; repeat dosing at 4, 8, 16 mg/kg, FIG. 17): clear and reasonably linear dose response | ADCC cell killing of MM cell lines [8]: potent cell killing activity | Antibody binding by flow cytometry [9]: dose-dependent binding
